Experimental data published in article PMC10586699.
Where two headings read alike, the source gives them in different places. Results are given in words; binding and its absence hold for the method and conditions named. For some of these results: In cells and extracts the contact can be indirect. Some results given as binding are weak or reduced against the parent protein; the word gives no strength. Where a sequence is shown, tags or fusion partners need not be part of it.

Sequences of proteins named here, by UniProt entry; tags and fusion partners are left off. A change or cut given only in a name is not applied to a line headed by its entry.
UniProt Q06168: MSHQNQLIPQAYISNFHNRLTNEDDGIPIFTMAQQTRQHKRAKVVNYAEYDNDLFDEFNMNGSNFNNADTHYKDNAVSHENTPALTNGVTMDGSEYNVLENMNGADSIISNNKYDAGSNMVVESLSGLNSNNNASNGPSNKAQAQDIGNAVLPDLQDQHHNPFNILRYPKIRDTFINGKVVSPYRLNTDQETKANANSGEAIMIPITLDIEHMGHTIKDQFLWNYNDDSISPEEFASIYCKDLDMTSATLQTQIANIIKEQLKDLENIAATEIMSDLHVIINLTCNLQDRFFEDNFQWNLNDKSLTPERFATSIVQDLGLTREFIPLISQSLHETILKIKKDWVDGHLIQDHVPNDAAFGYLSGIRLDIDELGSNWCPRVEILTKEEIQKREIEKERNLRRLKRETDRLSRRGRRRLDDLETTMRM

Assays:
[1] = target: T1, Rep1 fused to the Gal4 DNA binding domain (yeast 2-micron plasmid (Saccharomyces)) (UniProt P03871); experiment: two-hybrid; screen of a yeast cDNA library with Rep1
T1 sequence: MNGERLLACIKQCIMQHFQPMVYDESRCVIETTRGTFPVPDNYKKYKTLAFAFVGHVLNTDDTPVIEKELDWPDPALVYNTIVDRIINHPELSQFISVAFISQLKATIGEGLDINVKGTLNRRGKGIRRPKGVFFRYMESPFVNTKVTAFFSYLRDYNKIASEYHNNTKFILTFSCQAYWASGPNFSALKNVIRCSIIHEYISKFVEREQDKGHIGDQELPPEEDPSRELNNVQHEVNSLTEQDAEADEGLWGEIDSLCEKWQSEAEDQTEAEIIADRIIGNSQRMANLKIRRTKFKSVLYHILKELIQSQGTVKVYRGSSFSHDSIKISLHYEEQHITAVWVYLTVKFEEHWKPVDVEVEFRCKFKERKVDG

[2] = target: T1, Rep1 fused to the Gal4 DNA binding domain (yeast 2-micron plasmid (Saccharomyces)); experiment: two-hybrid; Gal4-based Matchmaker Gold Two-hybrid System (Clontech); diploids from mating of bait and prey strains, serial dilutions spotted; reporters HIS3 (with 3-AT), MEL1 (X-α-gal), AUR1-C (Aureobasidin A); [Cir+] and [Cir0] hosts
[3] = target: T2, Rep2 fused to the Gal4 DNA binding domain (yeast 2-micron plasmid (Saccharomyces)) (UniProt P03872); experiment: as above
T2 sequence: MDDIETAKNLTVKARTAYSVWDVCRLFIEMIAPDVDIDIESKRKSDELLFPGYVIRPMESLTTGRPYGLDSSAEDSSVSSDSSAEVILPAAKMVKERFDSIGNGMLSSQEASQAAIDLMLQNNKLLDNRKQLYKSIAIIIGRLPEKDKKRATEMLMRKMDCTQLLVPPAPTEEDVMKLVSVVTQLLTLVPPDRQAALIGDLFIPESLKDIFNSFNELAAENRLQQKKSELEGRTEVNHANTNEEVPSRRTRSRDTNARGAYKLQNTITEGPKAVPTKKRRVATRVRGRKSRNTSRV

[4] = target: T3, Rep1 expressed in E. coli (yeast 2-micron plasmid (Saccharomyces)) (UniProt P03871); experiment: co-IP; proteins expressed in E. coli individually or in pairs; extracts immunoprecipitated with Anti-His or Anti-GST antibodies (reciprocal); western blot
T3 sequence: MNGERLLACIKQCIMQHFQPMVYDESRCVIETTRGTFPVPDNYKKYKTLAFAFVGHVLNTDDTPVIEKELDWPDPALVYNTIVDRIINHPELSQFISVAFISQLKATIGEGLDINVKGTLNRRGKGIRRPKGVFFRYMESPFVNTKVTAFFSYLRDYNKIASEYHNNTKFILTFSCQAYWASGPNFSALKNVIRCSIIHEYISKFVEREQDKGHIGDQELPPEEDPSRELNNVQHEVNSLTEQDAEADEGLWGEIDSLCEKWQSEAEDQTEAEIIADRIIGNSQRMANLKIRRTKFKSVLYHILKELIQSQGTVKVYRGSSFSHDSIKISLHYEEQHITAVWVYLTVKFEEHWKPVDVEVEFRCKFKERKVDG

[5] = target: T4, Rep2 expressed in E. coli (yeast 2-micron plasmid (Saccharomyces)) (UniProt P03872); experiment: as above
T4 sequence: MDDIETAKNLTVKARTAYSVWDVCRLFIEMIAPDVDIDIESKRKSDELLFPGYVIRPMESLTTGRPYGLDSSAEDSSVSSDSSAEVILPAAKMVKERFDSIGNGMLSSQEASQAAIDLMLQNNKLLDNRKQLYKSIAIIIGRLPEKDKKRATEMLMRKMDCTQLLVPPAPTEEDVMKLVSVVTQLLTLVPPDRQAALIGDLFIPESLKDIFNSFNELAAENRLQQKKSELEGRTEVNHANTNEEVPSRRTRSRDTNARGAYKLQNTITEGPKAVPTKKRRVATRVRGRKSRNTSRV

[6] = target: T5, HA-tagged Rep1 expressed in yeast (yeast 2-micron plasmid (Saccharomyces)) (UniProt P03871); experiment: co-IP; yeast extracts; primary enrichment with anti-HA (Rep1), anti-Myc (Rep2) or anti-CBP (Rsc2-CBP or Rsc1-CBP); western blot with each of these antibodies
T5 sequence: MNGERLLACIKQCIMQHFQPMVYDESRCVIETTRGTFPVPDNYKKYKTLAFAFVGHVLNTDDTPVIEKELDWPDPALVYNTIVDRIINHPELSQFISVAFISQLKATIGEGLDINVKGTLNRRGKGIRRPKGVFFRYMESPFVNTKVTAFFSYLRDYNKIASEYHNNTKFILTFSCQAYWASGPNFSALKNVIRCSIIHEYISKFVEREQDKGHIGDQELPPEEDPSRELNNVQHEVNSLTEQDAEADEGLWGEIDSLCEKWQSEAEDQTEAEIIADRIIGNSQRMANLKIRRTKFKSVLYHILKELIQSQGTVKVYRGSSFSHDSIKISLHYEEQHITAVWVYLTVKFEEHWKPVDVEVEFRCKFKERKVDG

[7] = target: T1, Rep1 fused to the Gal4 DNA binding domain (yeast 2-micron plasmid (Saccharomyces)); experiment: two-hybrid; Gal4-based Matchmaker Gold Two-hybrid System (Clontech); diploids from mating of bait and prey strains, serial dilutions spotted; reporters HIS3 (with 3-AT), MEL1 (X-α-gal), AUR1-C (Aureobasidin A); [Cir+] and [Cir0] hosts; remark: listed apart in the source
[8] = target: T2, Rep2 fused to the Gal4 DNA binding domain (yeast 2-micron plasmid (Saccharomyces)); experiment: as above; remark: listed apart in the source

Sfh1(Δ1–278) fused to the Gal4 activation domain (from UniProt Q06168 279-426) (domain or fragment)
binding [1]: binds
binding [2]: binds
binding [3]: no binding

Sfh1 fused to the Gal4 activation domain (from UniProt Q06168 1-426)
binding [2]: binds

full-length Sfh1 expressed in E. coli (from UniProt Q06168 1-426)
binding [4]: binds

Sfh1(Δ1–278) expressed in E. coli (from UniProt Q06168 279-426) (domain or fragment)
binding [4]: binds
binding [5]: no binding

B1: Myc-tagged Rep2 expressed in yeast (protein, UniProt P03872 1-296)
chain: MDDIETAKNLTVKARTAYSVWDVCRLFIEMIAPDVDIDIESKRKSDELLFPGYVIRPMESLTTGRPYGLDSSAEDSSVSSDSSAEVILPAAKMVKERFDSIGNGMLSSQEASQAAIDLMLQNNKLLDNRKQLYKSIAIIIGRLPEKDKKRATEMLMRKMDCTQLLVPPAPTEEDVMKLVSVVTQLLTLVPPDRQAALIGDLFIPESLKDIFNSFNELAAENRLQQKKSELEGRTEVNHANTNEEVPSRRTRSRDTNARGAYKLQNTITEGPKAVPTKKRRVATRVRGRKSRNTSRV
binding [6]: binds

B2: Rep2 fused to the Gal4 activation domain (protein, UniProt P03872 1-296)
chain: MDDIETAKNLTVKARTAYSVWDVCRLFIEMIAPDVDIDIESKRKSDELLFPGYVIRPMESLTTGRPYGLDSSAEDSSVSSDSSAEVILPAAKMVKERFDSIGNGMLSSQEASQAAIDLMLQNNKLLDNRKQLYKSIAIIIGRLPEKDKKRATEMLMRKMDCTQLLVPPAPTEEDVMKLVSVVTQLLTLVPPDRQAALIGDLFIPESLKDIFNSFNELAAENRLQQKKSELEGRTEVNHANTNEEVPSRRTRSRDTNARGAYKLQNTITEGPKAVPTKKRRVATRVRGRKSRNTSRV
binding [7]: binds

B3: Rep1 fused to the Gal4 activation domain (protein, UniProt P03871 1-373)
chain: MNGERLLACIKQCIMQHFQPMVYDESRCVIETTRGTFPVPDNYKKYKTLAFAFVGHVLNTDDTPVIEKELDWPDPALVYNTIVDRIINHPELSQFISVAFISQLKATIGEGLDINVKGTLNRRGKGIRRPKGVFFRYMESPFVNTKVTAFFSYLRDYNKIASEYHNNTKFILTFSCQAYWASGPNFSALKNVIRCSIIHEYISKFVEREQDKGHIGDQELPPEEDPSRELNNVQHEVNSLTEQDAEADEGLWGEIDSLCEKWQSEAEDQTEAEIIADRIIGNSQRMANLKIRRTKFKSVLYHILKELIQSQGTVKVYRGSSFSHDSIKISLHYEEQHITAVWVYLTVKFEEHWKPVDVEVEFRCKFKERKVDG
binding [8]: binds
